Several values for one entry are separate records, joined by “and”; a condition that tells them apart may be missing. Identical values can stand only once. The source gives many values for each of these; only a part stands here.
Tests used:
Experiment in all cases: Inside-out patch-clamp inhibition of CFTR current by Inh-172
Assay type in all cases: cell-based
[1] = biological target: T1, M348K-CFTR (Homo sapiens, UniProt P13569, M348K); details: 5000 nM Inh-172
T1 construct: expressed in transfected cells; host or cells: CHO cells, pcDNA plasmid
T1 sequence (P13569 whole entry M348K): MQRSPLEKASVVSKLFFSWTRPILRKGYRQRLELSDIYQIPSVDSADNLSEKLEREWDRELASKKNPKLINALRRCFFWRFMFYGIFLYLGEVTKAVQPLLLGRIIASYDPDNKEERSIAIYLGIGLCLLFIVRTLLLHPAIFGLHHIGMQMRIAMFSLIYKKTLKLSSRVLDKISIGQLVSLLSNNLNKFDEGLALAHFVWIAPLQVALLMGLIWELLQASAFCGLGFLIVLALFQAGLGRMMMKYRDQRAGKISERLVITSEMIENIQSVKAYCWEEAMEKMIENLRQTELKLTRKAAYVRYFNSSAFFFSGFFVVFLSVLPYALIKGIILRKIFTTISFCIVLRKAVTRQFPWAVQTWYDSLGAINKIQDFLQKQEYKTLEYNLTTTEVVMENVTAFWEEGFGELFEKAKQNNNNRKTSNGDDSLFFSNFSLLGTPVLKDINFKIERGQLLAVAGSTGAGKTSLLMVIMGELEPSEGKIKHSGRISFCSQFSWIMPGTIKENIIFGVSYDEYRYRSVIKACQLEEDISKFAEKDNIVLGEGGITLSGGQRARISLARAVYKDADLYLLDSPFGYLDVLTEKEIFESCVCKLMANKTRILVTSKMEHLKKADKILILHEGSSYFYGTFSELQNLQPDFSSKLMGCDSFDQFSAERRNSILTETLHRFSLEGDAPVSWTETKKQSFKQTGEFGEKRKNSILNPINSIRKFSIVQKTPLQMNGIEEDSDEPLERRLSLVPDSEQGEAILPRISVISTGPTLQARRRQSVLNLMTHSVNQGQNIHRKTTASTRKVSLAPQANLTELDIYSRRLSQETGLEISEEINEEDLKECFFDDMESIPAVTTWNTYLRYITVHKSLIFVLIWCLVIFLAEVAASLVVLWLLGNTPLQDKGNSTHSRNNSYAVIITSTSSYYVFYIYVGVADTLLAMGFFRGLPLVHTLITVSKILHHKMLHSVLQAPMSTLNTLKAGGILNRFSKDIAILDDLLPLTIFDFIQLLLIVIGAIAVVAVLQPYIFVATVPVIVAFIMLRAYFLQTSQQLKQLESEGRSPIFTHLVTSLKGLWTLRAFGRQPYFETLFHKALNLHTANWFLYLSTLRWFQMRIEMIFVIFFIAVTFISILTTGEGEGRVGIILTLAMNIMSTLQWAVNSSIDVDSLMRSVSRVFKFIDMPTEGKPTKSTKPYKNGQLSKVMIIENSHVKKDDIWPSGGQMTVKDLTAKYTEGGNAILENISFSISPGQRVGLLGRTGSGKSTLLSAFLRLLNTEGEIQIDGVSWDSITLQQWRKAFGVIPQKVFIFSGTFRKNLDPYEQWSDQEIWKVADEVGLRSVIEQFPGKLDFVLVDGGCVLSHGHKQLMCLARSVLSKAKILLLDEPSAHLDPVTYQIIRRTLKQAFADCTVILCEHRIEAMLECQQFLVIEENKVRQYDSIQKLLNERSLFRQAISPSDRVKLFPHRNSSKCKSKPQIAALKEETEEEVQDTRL
Protocol: (§1) CHO cells were grown at 37 °C in Dulbecco’s modified Eagle’s medium supplemented with 10% (vol/vol) fetal bovine serum (Sigma-Aldrich, St. Louis, MO). pcDNA plasmids carrying the desired CFTR construct were transfected to CHO cells using PolyFect transfection reagent (Qiagen, Hilden, Germany) together with green fluorescence protein (GFP) cDNA (pEGFP-C3, Takara Bio, Shiga, Japan) that helps identify expression of CFTR. Cells were first incubated with the transfection reagents at 37 °C for 6-12 hours on sterile glass chips in 35-mm tissue culture dishes before transferred to 27 °C for incubation for 2–7 days. Primers for mutations were ordered from Integrated DNA Technologies (Coralville, IA) and were summarized in Supplementary Data. All CFTR mutants were prepared with QuikChange XL kit (Agilent, Santa Clara, CA) and sequenced at the DNA Core facility at University of Missouri-Columbia.
(§2) Patch-clamp pipettes were made from borosilicate capillary glass using a two-stage vertical puller (PP-81; Narishige, Amityville, NY). The pipette tips were fire polished with a homemade microforge to yield a pipette resistance of 2–5 MΩ when filled with a pipette solution containing (in mM): 140 NMDG-Cl (N-methyl-D-glucamine-chloride), 5 CaCl2, 2 MgCl2, and 10 HEPES, pH 7.4. For recordings, transfected cells on glass chips were transferred into a continuously perfused chamber on the stage of an inverted microscope (IX51; Olympus, Tokyo, Japan) with the perfusing solution containing (in mM): 150 NMDG-Cl, 2 MgCl2, 10 EGTA, 8 Tris, and 10 HEPES, pH 7.4. The membrane patch was excised to an inside-out configuration with a seal resistance >40 GΩ. CFTR currents were recorded with an amplifier (EPC9; HEKA, Holliston, MA), filtered through an eight-pole Bessel filter (LPF-8; Warner Instruments, Hamden, CT) at 100 Hz and digitized to a computer at a sampling rate of 500 Hz with Pulse software (version 8.53; HEKA). The membrane potential was held at −30 mV. Solution exchange was achieved by a fast solution change system (SF-77B; Warner Instruments). Inh-172 was obtained from the CFTR Chemical Compound Program supported by the Cystic Fibrosis Foundation. All experiments were performed at room temperature.
(§3) The steady state mean currents were measured in the Igor Pro software (version 8.0; WaveMetrics). The mean baseline currents were subtracted from the steady state mean currents before the data were used to determine the degrees of inhibition. The degrees of inhibition by CFTR inhibitor 172 were calculated based on the equation:1 %inhibition=1−IInh−172/I0X100% where I0 and Iinh−172 represent uninhibited and inhibited currents, respectively. The IC50 and Hill coefficients were obtained by fitting percent inhibition as a function of [Inh-172] with the Hill equation:2 %inhibition=base+(max−base)/1+xhalf/x^rate where max and base represent the […] percent inhibition by Inh-172, x represents the concentration of Inh-172, and the rate is the Hill coefficient. The estimated IC50 (xhalf) and Hill coefficients are listed in Table 1 as mean ± standard deviation. Each patch-clamp recording was made from a separate cell.

[2] = biological target: T2, T1142I-CFTR (Homo sapiens, UniProt P13569, T1142I)
T2 construct: expressed in transfected cells; host or cells: CHO cells, pcDNA plasmid
T2 sequence (P13569 whole entry T1142I): as the sequence (P13569 whole entry M348K) above, with K348M, T1142I counted along it
Protocol: as §1, §2, §3

[3] = biological target: T3, W1145Y-CFTR (Homo sapiens, UniProt P13569, W1145Y)
T3 construct: expressed in transfected cells; host or cells: CHO cells, pcDNA plasmid
T3 sequence (P13569 whole entry W1145Y): as the sequence (P13569 whole entry M348K) above, with K348M, W1145Y counted along it
Protocol: as §1, §2, §3

[4] = biological target: T4, h-pTM8-h-CFTR (human CFTR, three TM8 amino acids replaced with pig's) (Homo sapiens, UniProt P13569, F931L/M929L/T925G)
T4 construct: expressed in transfected cells; host or cells: CHO cells, pcDNA plasmid
T4 sequence (P13569 whole entry T925G/M929L/F931L): as the sequence (P13569 whole entry M348K) above, with K348M, T925G, M929L, F931L counted along it
Protocol: as §1, §2, §3

[5] = biological target: T5, h-pTMD2-h-CFTR (human CFTR with pig CFTR's TMD2) (Homo sapiens, UniProt P13569, A1009S/A789T/A797V/A842T/E1221D/E815D/F931L/G885K/H897K/H950R/I1005V/I1226V/I853V/I869V/I982V/INS1173D/K1174Q/K1177R/K830R/L805I/L889P/M1028L/M837V/M929L/N1184D/N782S/N886K/P888S/Q1012K/Q1035H/R1128T/R899A/S1196Q/S877C/S898G/S912A/T1171A/T1176N/T1179F/T1220V/T788A/T925G/V1017L/V1056I/V794M/W882C/Y1182S)
T5 construct: expressed in transfected cells; host or cells: CHO cells, pcDNA plasmid
T5 sequence (P13569 with tags, fused parts or gaps with the stated changes): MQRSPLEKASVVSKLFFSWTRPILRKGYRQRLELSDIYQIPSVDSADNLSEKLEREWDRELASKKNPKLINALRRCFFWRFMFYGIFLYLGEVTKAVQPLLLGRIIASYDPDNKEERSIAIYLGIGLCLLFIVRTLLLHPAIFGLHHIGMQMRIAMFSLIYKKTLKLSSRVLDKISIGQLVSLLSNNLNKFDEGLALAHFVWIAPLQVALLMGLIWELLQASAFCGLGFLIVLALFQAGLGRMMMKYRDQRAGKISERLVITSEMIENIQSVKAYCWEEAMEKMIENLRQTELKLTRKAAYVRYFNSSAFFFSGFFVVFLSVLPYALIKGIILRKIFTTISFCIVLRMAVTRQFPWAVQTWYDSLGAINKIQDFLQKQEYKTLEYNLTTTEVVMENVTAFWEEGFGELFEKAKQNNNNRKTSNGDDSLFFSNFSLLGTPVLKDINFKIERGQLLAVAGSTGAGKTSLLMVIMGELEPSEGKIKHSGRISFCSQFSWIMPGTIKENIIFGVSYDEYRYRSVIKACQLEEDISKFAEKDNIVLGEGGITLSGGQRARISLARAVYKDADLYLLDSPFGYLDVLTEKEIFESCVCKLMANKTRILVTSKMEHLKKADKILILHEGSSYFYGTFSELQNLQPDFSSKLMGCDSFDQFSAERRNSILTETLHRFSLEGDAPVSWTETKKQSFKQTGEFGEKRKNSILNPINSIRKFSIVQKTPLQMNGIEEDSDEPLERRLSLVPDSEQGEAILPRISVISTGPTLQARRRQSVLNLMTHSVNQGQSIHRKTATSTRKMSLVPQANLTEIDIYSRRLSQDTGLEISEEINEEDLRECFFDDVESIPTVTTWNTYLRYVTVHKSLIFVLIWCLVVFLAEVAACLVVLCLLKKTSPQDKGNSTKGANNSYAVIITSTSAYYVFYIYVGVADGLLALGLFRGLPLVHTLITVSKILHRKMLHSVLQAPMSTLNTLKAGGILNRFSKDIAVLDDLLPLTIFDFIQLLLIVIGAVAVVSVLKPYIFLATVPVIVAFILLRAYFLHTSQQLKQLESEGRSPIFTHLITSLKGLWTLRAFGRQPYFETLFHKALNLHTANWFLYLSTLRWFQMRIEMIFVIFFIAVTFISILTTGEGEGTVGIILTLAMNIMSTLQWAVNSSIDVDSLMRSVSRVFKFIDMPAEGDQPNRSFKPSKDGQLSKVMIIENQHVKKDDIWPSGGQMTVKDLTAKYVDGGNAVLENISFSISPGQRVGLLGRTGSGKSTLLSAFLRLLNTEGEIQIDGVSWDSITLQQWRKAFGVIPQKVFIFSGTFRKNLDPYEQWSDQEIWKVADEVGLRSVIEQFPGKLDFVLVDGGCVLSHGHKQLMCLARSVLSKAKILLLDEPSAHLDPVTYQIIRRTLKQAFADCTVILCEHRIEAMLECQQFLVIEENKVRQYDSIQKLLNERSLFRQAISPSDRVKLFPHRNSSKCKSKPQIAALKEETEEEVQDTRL
Protocol: as §1, §2, §3

[6] = biological target: T6, human WT-CFTR (Homo sapiens, UniProt P13569)
T6 construct: the native wild-type CFTR construct without any deletion or mutation; expressed in transfected cells; host or cells: CHO cells, pcDNA plasmid
T6 sequence (P13569 whole entry): as the sequence (P13569 whole entry M348K) above, with K348M counted along it
Protocol: as §1, §2, §3

With `O=C(O)c1ccc(/C=C2\SC(=S)N(c3cccc(C(F)(F)F)c3)C2=O)cc1` [Inh-172, CFTRinh-172] as the compound, how does the “percent inhibition of current, individual cell” value (“percent inhibition of current” below) [1] read?
The value was 87.0 and 82.0.

And the “percent inhibition of current” value ([2]; 100 nM Inh-172)?
Its value is 9.0 and 10.0 and 7.0.

What about the “percent inhibition of current” value ([2]; 500 nM Inh-172) of the same compound?
Its value is 30.0 and 23.0 and 20.0 and 18.0.

What about the “percent inhibition of current” value ([2]; 1000 nM Inh-172) of the same compound?
Its value is 44.0 and 37.0 and 41.0 and 39.0.

And the “percent inhibition of current” value ([2]; 5000 nM Inh-172)?
The value was 81.0 and 80.0 and 79.0 and 75.0 and 77.0.

And the “percent inhibition of current” value ([2]; 10000 nM Inh-172)?
Its value is 92.0 and 91.0.

What about the “percent inhibition of current” value ([3]; 100 nM Inh-172) of the same compound?
Its value is 5 and 17 and 10 and 11.

What about the “percent inhibition of current” value ([3]; 500 nM Inh-172) of the same compound?
Its value is 46 and 30 and 42 and 43.

What about the “percent inhibition of current” value ([3]; 1000 nM Inh-172) of the same compound?
The value was 43 and 67 and 48 and 56.

And the “percent inhibition of current” value ([3]; 5000 nM Inh-172)?
Its value is 84 and 85.

And the “percent inhibition of current” value ([3]; 10000 nM Inh-172)?
The value was 95 and 90 and 92.

And the “percent inhibition of current” value ([4]; 100 nM Inh-172)?
The value was 25.0 and 10.0 and 13.0 and 18.0 and 26.0.

What about the “percent inhibition of current” value ([4]; 500 nM Inh-172) of the same compound?
The value was 50.0 and 57.0 and 37.0 and 33.0 and 42.0 and 59.0.

What about the “percent inhibition of current” value ([4]; 1000 nM Inh-172) of the same compound?
Its value is 54.0 and 58.0.

And the “percent inhibition of current” value ([4]; 5000 nM Inh-172)?
The value was 79.0 and 80.0 and 85.0.

And the “percent inhibition of current” value ([5]; 100 nM Inh-172)?
The value was 12.0 and 9.0 and 6.0 and 0.0.

What about the “percent inhibition of current” value ([5]; 500 nM Inh-172) of the same compound?
Its value is 25.0 and 14.0 and 21.0.

What about the “percent inhibition of current” value ([5]; 1000 nM Inh-172) of the same compound?
The value was 30.0 and 31.0.

And the “percent inhibition of current” value ([5]; 5000 nM Inh-172)?
The value was 43.0 and 55.0 and 67.0 and 61.0.

And the “percent inhibition of current” value ([5]; 10000 nM Inh-172)?
The value was 51.0 and 65.0 and 58.0 and 66.0.

And the “percent inhibition of current” value ([6]; 25 nM Inh-172)?
Its value is 14 and 32 and 30 and 34 and 26.

What about the “percent inhibition of current” value ([6]; 50 nM Inh-172) of the same compound?
Its value is 42 and 35.

And the “percent inhibition of current” value ([6]; 100 nM Inh-172)?
The value was 61 and 60 and 64.

What about the “percent inhibition of current” value ([6]; 500 nM Inh-172) of the same compound?
The value was 87.

What about the “percent inhibition of current” value ([6]; 1000 nM Inh-172) of the same compound?
The value was 91 and 86.

From paper PMC11303713, “Allosteric inhibition of CFTR gating by CFTRinh-172 binding in the pore” (Nature Communications, 2024)
